# Results: the BET-seq Pho4 binding data (Le et al. 2018)
# This is one part of the list. The energies were worked out here from pooled read counts, against the library average; single values are noisy.
# Biological target: T1, Pho4 (S. cerevisiae) (UniProt P07270)
# T1 sequence: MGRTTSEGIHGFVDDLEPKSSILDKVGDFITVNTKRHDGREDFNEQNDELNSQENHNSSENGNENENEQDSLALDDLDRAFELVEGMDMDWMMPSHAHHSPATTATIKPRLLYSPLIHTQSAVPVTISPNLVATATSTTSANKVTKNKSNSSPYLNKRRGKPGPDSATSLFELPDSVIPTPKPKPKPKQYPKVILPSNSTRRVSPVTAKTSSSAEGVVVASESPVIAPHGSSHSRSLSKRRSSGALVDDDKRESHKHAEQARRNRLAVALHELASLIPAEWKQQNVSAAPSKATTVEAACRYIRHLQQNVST
# Assay: relative binding free energy (BET-seq); higher = weaker binding
# Conditions: reference: library average
row,Sequence,relative binding free energy
1,TTACTCACGTGGGCTT,0.21 kcal/mol
2,GACGGCACGTGGGTCG,-0.19 kcal/mol
3,TTGTACACGTGGTTAG,0.02 kcal/mol
4,GGGTGCACGTGCCGGG,-0.03 kcal/mol
5,CTGCGCACGTGTTAGG,-0.17 kcal/mol
6,GGCAGCACGTGGAAGT,0.14 kcal/mol
7,TAGCGCACGTGAGGAG,0.03 kcal/mol
8,GGAGGCACGTGTTAAG,-0.08 kcal/mol
9,TTAGTCACGTGCATGT,0.13 kcal/mol
10,GATTGCACGTGTAATT,0.22 kcal/mol
11,TAATTCACGTGTGTCA,0.17 kcal/mol
12,GGGTTCACGTGTGGTA,0.33 kcal/mol
13,TGGATCACGTGAATAT,0.4 kcal/mol
14,AGAGTCACGTGGTCAG,-0.03 kcal/mol
15,ATGATCACGTGTCGGT,0.2 kcal/mol
16,TATTTCACGTGGTCAT,0.24 kcal/mol
17,TAGTTCACGTGTATTT,0.17 kcal/mol
18,GTGTACACGTGAGGCG,0.4 kcal/mol
19,TGTGGCACGTGACATT,-0.08 kcal/mol
20,GGATACACGTGCGAGG,0.14 kcal/mol
21,GATTGCACGTGGGAAA,0.15 kcal/mol
22,CGGGTCACGTGAGTTA,0.22 kcal/mol
23,ATCCGCACGTGTGTTT,-0.05 kcal/mol
24,ATAGTCACGTGGGCTA,-0.06 kcal/mol
25,AATGTCACGTGTTAGA,0.17 kcal/mol

row,Sequence,relative binding free energy
1,CTGGTCACGTGTAATA,0.19 kcal/mol
2,GGCGTCACGTGAATAG,0.42 kcal/mol
3,ATCGTCACGTGGGGGT,-0.06 kcal/mol
4,TAGTGCACGTGGGGCG,-0.19 kcal/mol
5,TTGGACACGTGGGGCC,-0.07 kcal/mol
6,TTTCACACGTGAATGT,0.31 kcal/mol
7,GAGGGCACGTGAAGCT,0.15 kcal/mol
8,AGAGGCACGTGCTAGG,-0.13 kcal/mol
9,AGGTGCACGTGGCAGT,-0.3 kcal/mol
10,TTTGGCACGTGTCAGA,-0.15 kcal/mol
11,TATTCCACGTGTTTTG,-0.11 kcal/mol
12,GTGGTCACGTGGCATT,-0.01 kcal/mol
13,TGCAGCACGTGTGCGG,-0.22 kcal/mol
14,GTGGGCACGTGTTTTT,0.05 kcal/mol
15,TTGACCACGTGATGTG,0 kcal/mol
16,ATTGTCACGTGTTTGC,0.08 kcal/mol
17,GTGAGCACGTGGGACT,-0.16 kcal/mol
18,GATTTCACGTGGTGGT,0.33 kcal/mol
19,ACGGTCACGTGTTGCG,0.17 kcal/mol
20,CGGTTCACGTGTGGCT,0.23 kcal/mol
21,AGGTCCACGTGGGCTG,-0.2 kcal/mol
22,ATGGGCACGTGTCATG,-0.18 kcal/mol
23,TGCGGCACGTGGGTAT,-0.2 kcal/mol
24,CGTTGCACGTGCGGGA,-0.06 kcal/mol
25,GGTCCCACGTGAGGGG,0.22 kcal/mol

row,Sequence,relative binding free energy
1,GGTGCCACGTGGGTCT,-0.18 kcal/mol
2,GTCAACACGTGGCGGG,-0.05 kcal/mol
3,TAACACACGTGGGTTG,-0.11 kcal/mol
4,TGTGTCACGTGCTGTC,0.09 kcal/mol
5,TATGCCACGTGGGGTT,-0.19 kcal/mol
6,TAGTTCACGTGGTATC,0.16 kcal/mol
7,AGGTACACGTGTTTGT,0.01 kcal/mol
8,AGCGGCACGTGGGGGC,-0.27 kcal/mol
9,ACAGGCACGTGGAGTA,-0.08 kcal/mol
10,TGGCGCACGTGCCGGG,-0.2 kcal/mol
11,AGGCACACGTGAGGTA,0.31 kcal/mol
12,ACGTGCACGTGTTCGG,-0.15 kcal/mol
13,GTGTACACGTGATGGC,0.27 kcal/mol
14,AGTAACACGTGGATTG,-0.02 kcal/mol
15,GGGAGCACGTGTACGG,-0.08 kcal/mol
16,GAAGTCACGTGAGGTT,0.19 kcal/mol
17,TTTGTCACGTGCTGAC,0.16 kcal/mol
18,TGGCGCACGTGTAAGT,-0.08 kcal/mol
19,GATTACACGTGTTGTC,0.22 kcal/mol
20,AAACGCACGTGAGTGG,0 kcal/mol
21,GGTGGCACGTGACGAT,0.01 kcal/mol
22,CTCTTCACGTGGGTGG,0.08 kcal/mol
23,GAGGTCACGTGCTTTT,0.06 kcal/mol
24,CTGGGCACGTGAGGCA,0.03 kcal/mol
25,TGATGCACGTGCTGTT,-0.11 kcal/mol

row,Sequence,relative binding free energy
1,TTGTGCACGTGATCTG,0.03 kcal/mol
2,TTCAACACGTGATTTG,0.21 kcal/mol
3,AAGGGCACGTGAATGT,0.31 kcal/mol
4,GTATACACGTGATATT,0.19 kcal/mol
5,CGTGACACGTGGGGTC,-0.14 kcal/mol
6,TGTCGCACGTGGGTAA,-0.06 kcal/mol
7,ATGGTCACGTGCATAA,0.19 kcal/mol
8,TCAGACACGTGTTTTA,0.24 kcal/mol
9,TTATACACGTGAGGTC,0.41 kcal/mol
10,TGTTTCACGTGGATCG,0.4 kcal/mol
11,ATTAACACGTGTTGCA,0.03 kcal/mol
12,GGGGGCACGTGTAAAC,0.07 kcal/mol
13,GCTGGCACGTGGGCAG,-0.25 kcal/mol
14,ACGTTCACGTGTGATG,0.24 kcal/mol
15,TGAACCACGTGCGGGG,0.06 kcal/mol
16,TCCGTCACGTGGGTGT,-0.07 kcal/mol
17,TTTCGCACGTGGGACG,-0.14 kcal/mol
18,TGGGACACGTGAGATA,0.22 kcal/mol
19,TTATACACGTGGATGG,0.09 kcal/mol
20,TTATCCACGTGGGAGG,-0.04 kcal/mol
21,ATGTGCACGTGATGGA,0.15 kcal/mol
22,GATTTCACGTGGGTAG,0.13 kcal/mol
23,GTATTCACGTGTATCG,0.11 kcal/mol
24,TTCTTCACGTGATTTC,0.44 kcal/mol
25,GTCTGCACGTGAGGGG,0.29 kcal/mol

row,Sequence,relative binding free energy
1,ATCGTCACGTGAAGGT,0.26 kcal/mol
2,GAGAGCACGTGTGGCG,-0.06 kcal/mol
3,AGTATCACGTGGCGGA,0.13 kcal/mol
4,AGACTCACGTGGGGGT,0.09 kcal/mol
5,GGTGACACGTGGAGCG,0 kcal/mol
6,ATGGACACGTGGTTCA,0.14 kcal/mol
7,TCTGGCACGTGTCGTA,-0.11 kcal/mol
8,GTATTCACGTGTGCTA,0.36 kcal/mol
9,TGCTTCACGTGTGAAG,0.24 kcal/mol
10,GAAGTCACGTGGGGCT,0.13 kcal/mol
11,GTGAGCACGTGTTGAG,-0.05 kcal/mol
12,GTATGCACGTGTTGTG,0.07 kcal/mol
13,TGTTGCACGTGCCTGA,0.06 kcal/mol
14,GGGGCCACGTGAGGGA,0.06 kcal/mol
15,AAGTTCACGTGCAGGG,0.28 kcal/mol
16,GAGAGCACGTGAGAGG,0.24 kcal/mol
17,GATGGCACGTGTGGTT,0.03 kcal/mol
18,TAGTTCACGTGTGCTT,0.3 kcal/mol
19,TGGGTCACGTGGGTTA,0.08 kcal/mol
20,AACGGCACGTGGTGGT,-0.16 kcal/mol
21,AATCTCACGTGTTAGG,0.28 kcal/mol
22,CGGGCCACGTGTTTGG,-0.06 kcal/mol
23,TCTTACACGTGTGAGG,0.2 kcal/mol
24,ATTTTCACGTGAAATG,0.27 kcal/mol
25,AGGGTCACGTGAAAAT,0.39 kcal/mol

row,Sequence,relative binding free energy
1,TTTACCACGTGGAGGG,-0.1 kcal/mol
2,CTGGTCACGTGTGGAT,0.09 kcal/mol
3,TAGATCACGTGGTTGG,0.12 kcal/mol
4,GTCGACACGTGGCGTG,0.05 kcal/mol
5,AATTGCACGTGATCGG,0.04 kcal/mol
6,ATTTGCACGTGTCTGC,0.06 kcal/mol
7,TTGAACACGTGTGCTG,0.06 kcal/mol
8,GAGGACACGTGCTGTG,0.04 kcal/mol
9,GCGATCACGTGTTTTG,0.15 kcal/mol
10,TATAGCACGTGTGTCT,-0.05 kcal/mol
11,TTTCTCACGTGTTGTG,0.14 kcal/mol
12,AGAATCACGTGTCTTG,0.16 kcal/mol
13,TTAGGCACGTGGGGCT,-0.27 kcal/mol
14,CATTTCACGTGGGGAT,0.18 kcal/mol
15,GGTGTCACGTGGGCGA,-0.08 kcal/mol
16,CATTTCACGTGGTATT,0.04 kcal/mol
17,CTGTGCACGTGACGGT,-0.03 kcal/mol
18,TTAGGCACGTGCGGGA,-0.09 kcal/mol
19,ATGTTCACGTGGATTG,0.33 kcal/mol
20,GGATGCACGTGCTTTT,0.06 kcal/mol
21,TTTGGCACGTGGAGAT,-0.07 kcal/mol
